Variants at the floor of the assay are shown more often than the library holds them.

B1: TPR 5TU (parent)
chain: GGAUCUUCUCGAUCUAACAAAAAAGACAAAUCUGCCACAAAGCUUGAGAGCAUCUUCGGAUGCAGAGGCGGCAGCCUUCGGUGGCGCGAUAGCGCCAACGUUCUCAACUAUGACACGCAAAACGCGUGCUCCGUUGAAUGGAGUUUAUCAUG

This data set covers variants of B1. Briefly: polymerase ribozyme fitness, log enrichment relative to wild type (log ratio); higher = more active; in vitro selection for triplet polymerase activity. The method, boiled down:
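Fitness measures genotype enrichment against wild-type enrichment on a logarithmic scale, with inverse-variance-weighted averaging of replicates. The logarithm is base 2, and genotypes were kept only with ≥10 input reads and ≥1 read per output in Illumina sequencing. The sequenced libraries came from one triplicate in vitro selection round, including frozen incubation at −7 °C, of PCR-built, transcribed mutant libraries of each subunit of a heterodimeric triplet polymerase ribozyme.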
For A28G U44A C79U, the “polymerase ribozyme fitness (log ratio)” value was not above -4.2.

A28C A41C G84C C93U C118G C123G: the “polymerase ribozyme fitness (log ratio)” value is not above -4.2.

In the case of C27U A122G, the “polymerase ribozyme fitness (log ratio)” value is -2.4.

As to A26U C54A U56G C75A C93A U134A, the “polymerase ribozyme fitness (log ratio)” value is not above -4.2.

As to A26U G94A U102A G117U, the “polymerase ribozyme fitness (log ratio)” value was not above -4.2.

For A28G A29U A52C G68A G81C G100U A142U, the “polymerase ribozyme fitness (log ratio)” value is not above -4.2.

C27U C87A: the “polymerase ribozyme fitness (log ratio)” value was not above -4.2.

A28C C43A G62A C69G C93G C95G: the “polymerase ribozyme fitness (log ratio)” value is not above -4.2.

As to C27G C87G, the “polymerase ribozyme fitness (log ratio)” value was not above -4.2.

With C27U U53A C85A A110G U135G, the “polymerase ribozyme fitness (log ratio)” value is not above -4.2.

A28C G86U: the “polymerase ribozyme fitness (log ratio)” value was not above -4.2.

As to A26U A30G U61A G100U C108U G141A, the “polymerase ribozyme fitness (log ratio)” value was not above -4.2.

For A26U A52C U53A G88U C99G U148C, the “polymerase ribozyme fitness (log ratio)” value was not above -4.2.

Regarding A26U A41G C75G A91U G124C, the “polymerase ribozyme fitness (log ratio)” value was not above -4.2.

Regarding A28C C38U A39U C57A, the “polymerase ribozyme fitness (log ratio)” value was not above -4.2.

C27G A52G G92U G141A: the “polymerase ribozyme fitness (log ratio)” value is not above -4.2.

Consider A28G C36U, for which the “polymerase ribozyme fitness (log ratio)” value was not above -4.2.

On to C27U A40U U61G G67C U78G, for which the “polymerase ribozyme fitness (log ratio)” value is not above -4.2.

A28C G34A A41C C123G A138U G140U G152A: the “polymerase ribozyme fitness (log ratio)” value is not above -4.2.

Consider A26U G58U C93U A97G G124A U139C G143C, for which the “polymerase ribozyme fitness (log ratio)” value is not above -4.2.

For C27A G42U G88A U130C, the “polymerase ribozyme fitness (log ratio)” value is not above -4.2.

Regarding A28G A41C U44C G84C C95U C105G G117U U139G G141U C149A, the “polymerase ribozyme fitness (log ratio)” value is not above -4.2.

In the case of A26U A41C G71U C95A, the “polymerase ribozyme fitness (log ratio)” value is not above -4.2.

Take C27A C87U G136C: the “polymerase ribozyme fitness (log ratio)” value is not above -4.2.

With C27U A39G A40C C69A U77C G94U C95A C116U G140U, the “polymerase ribozyme fitness (log ratio)” value was not above -4.2.

As for C27U C63U C87A G141U, the “polymerase ribozyme fitness (log ratio)” value was not above -4.2.

As for A26U U104C G126C U146A, the “polymerase ribozyme fitness (log ratio)” value is -2.67.

A26U U31A U44G C75G U102G A120C: the “polymerase ribozyme fitness (log ratio)” value is not above -4.2.

Regarding C27G C54A G92U C103U U146C A147C, the “polymerase ribozyme fitness (log ratio)” value is not above -4.2.

As to C27G C51U A52C A89G A97C U101G, the “polymerase ribozyme fitness (log ratio)” value is not above -4.2.

For the variant A26G U33C C85U, the “polymerase ribozyme fitness (log ratio)” value was not above -4.2.

Regarding A28G A138C C149A, the “polymerase ribozyme fitness (log ratio)” value was not above -4.2.

With C27U C87U G140C, the “polymerase ribozyme fitness (log ratio)” value was not above -4.2.

A26U C75A U82G G92U G100A A107U U144A: the “polymerase ribozyme fitness (log ratio)” value was not above -4.2.

Regarding C27G C54G C57A U148A, the “polymerase ribozyme fitness (log ratio)” value was not above -4.2.

Turning to C27G A37G A64C C99A, the “polymerase ribozyme fitness (log ratio)” value is not above -4.2.

Consider A26U A91G A115G A150C, for which the “polymerase ribozyme fitness (log ratio)” value is not above -4.2.

As to A26U C51U A64C G81C A106U, the “polymerase ribozyme fitness (log ratio)” value was not above -4.2.

Take A26U G46U A73G U139A G141A: the “polymerase ribozyme fitness (log ratio)” value was not above -4.2.

On to C27U A39G G70C C76U G80A U82A A98U, for which the “polymerase ribozyme fitness (log ratio)” value is not above -4.2.

Consider C27U C36U C43G A52G G59U U61A G100U, for which the “polymerase ribozyme fitness (log ratio)” value is not above -4.2.

Consider C27A A49G A60G C85U, for which the “polymerase ribozyme fitness (log ratio)” value is not above -4.2.

In the case of C27U U31C A52C U78C U101A C125G, the “polymerase ribozyme fitness (log ratio)” value was not above -4.2.

In the case of A28U A29C U45A G58C C85U C105U A106G, the “polymerase ribozyme fitness (log ratio)” value is not above -4.2.

On to A28C A29U A30U C85U C99G A121G U148A, for which the “polymerase ribozyme fitness (log ratio)” value is not above -4.2.

Take A26G U44A C54U C87A C99U U111G G143U: the “polymerase ribozyme fitness (log ratio)” value was not above -4.2.

Take A28G G34U G80A U102A C108G: the “polymerase ribozyme fitness (log ratio)” value is not above -4.2.

With A28G A30U C69U C87G, the “polymerase ribozyme fitness (log ratio)” value was not above -4.2.

With C27G G50A, the “polymerase ribozyme fitness (log ratio)” value is -3.72.

With C27A A37U C85G C87G C96G, the “polymerase ribozyme fitness (log ratio)” value was not above -4.2.

In the case of A26U A40U A91U A121U, the “polymerase ribozyme fitness (log ratio)” value was not above -4.2.

Take A26G G92U C108G G136C U144C: the “polymerase ribozyme fitness (log ratio)” value was not above -4.2.

A26U C51U G83U A150G: the “polymerase ribozyme fitness (log ratio)” value was not above -4.2.

Consider C27G C32G U53G C99U A107U, for which the “polymerase ribozyme fitness (log ratio)” value is not above -4.2.

For A28C A29U A107U A115G, the “polymerase ribozyme fitness (log ratio)” value is not above -4.2.

Consider C27A G117A, for which the “polymerase ribozyme fitness (log ratio)” value is -3.86.

Regarding C27A G42U C93U A110G U111G U145C, the “polymerase ribozyme fitness (log ratio)” value is not above -4.2.

With C27G A41C U44A C96A A107G G141C, the “polymerase ribozyme fitness (log ratio)” value was not above -4.2.

Take A28G A66C G92U C118U U135G: the “polymerase ribozyme fitness (log ratio)” value was not above -4.2.

Regarding C27G G42A G50A C57U C87G, the “polymerase ribozyme fitness (log ratio)” value is not above -4.2.

Take A26U U61A C79U C96G U101G: the “polymerase ribozyme fitness (log ratio)” value was not above -4.2.

For the variant A28G A29G G58A G81A G92U A120C G126A U145A U148A, the “polymerase ribozyme fitness (log ratio)” value is not above -4.2.

In the case of A28G A29U C43G A47C G84U A110U, the “polymerase ribozyme fitness (log ratio)” value was not above -4.2.

Consider A26G C85G A97U C118U C131G, for which the “polymerase ribozyme fitness (log ratio)” value is not above -4.2.

Take A26U C27U A49G G50C G83A A91C G152C: the “polymerase ribozyme fitness (log ratio)” value was not above -4.2.

Regarding C27G A49C G50U C54U C87G, the “polymerase ribozyme fitness (log ratio)” value is not above -4.2.

In the case of C27A G50C U104A A138G G140A, the “polymerase ribozyme fitness (log ratio)” value was not above -4.2.

Regarding C27G C43U G68C G74A C87U A89G A121U U151C, the “polymerase ribozyme fitness (log ratio)” value was not above -4.2.

Turning to A28C C93U A120G U134A G141C, the “polymerase ribozyme fitness (log ratio)” value was not above -4.2.

As to A28C U31A U53A, the “polymerase ribozyme fitness (log ratio)” value was not above -4.2.

As for A26U C51A C54A C57U U90C C93G, the “polymerase ribozyme fitness (log ratio)” value is not above -4.2.

Consider A28C G70A C76A G83A C87U C96U U135G, for which the “polymerase ribozyme fitness (log ratio)” value was not above -4.2.

With A28G G50C A122G U145C U148A, the “polymerase ribozyme fitness (log ratio)” value was not above -4.2.

Regarding A26G C103G U148A, the “polymerase ribozyme fitness (log ratio)” value was not above -4.2.

Take A26U A60U G88C C95U A138C U151A: the “polymerase ribozyme fitness (log ratio)” value was not above -4.2.

In the case of C27G A49C G74U G81U C85U U90A C103G C125G U134G, the “polymerase ribozyme fitness (log ratio)” value was not above -4.2.

Consider A28C C35G C69A C72A G126A, for which the “polymerase ribozyme fitness (log ratio)” value was not above -4.2.

C27U C114U U151G: the “polymerase ribozyme fitness (log ratio)” value was not above -4.2.

Turning to A28U A41U C79G G86A G136A G152A, the “polymerase ribozyme fitness (log ratio)” value is not above -4.2.

For C27U A97G C131A U151C, the “polymerase ribozyme fitness (log ratio)” value was not above -4.2.

For the variant A26U G70A G92U C103U, the “polymerase ribozyme fitness (log ratio)” value is not above -4.2.

As to A26U A91C A97G A107U, the “polymerase ribozyme fitness (log ratio)” value is not above -4.2.

With C27G A28G A29U A41U C72U G86A A91U G112U U145A, the “polymerase ribozyme fitness (log ratio)” value was not above -4.2.

Values taken from the RNAGym collection of RNA variant scans (doi:10.1073/pnas.2313332121).
